# Reference: article PMC4336329 (PLoS ONE, 2015)
# About 14,000 (4.5%) of roughly 310,000 compounds showed an effect of 50% or more. Effects have a minus sign here. Some of the results follow.
# Molecular target: human ether-à-go-go-related gene (hERG) potassium channel (human, UniProt Q12809)
# Assay: primary screen, population patch clamp on CHO cells stably expressing hERG
# 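Note: peak tail current of the secondary pulse compared with the same well before compound.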
# Chain of human ether-à-go-go-related gene (hERG) potassium channel (Q12809 whole entry, looked up): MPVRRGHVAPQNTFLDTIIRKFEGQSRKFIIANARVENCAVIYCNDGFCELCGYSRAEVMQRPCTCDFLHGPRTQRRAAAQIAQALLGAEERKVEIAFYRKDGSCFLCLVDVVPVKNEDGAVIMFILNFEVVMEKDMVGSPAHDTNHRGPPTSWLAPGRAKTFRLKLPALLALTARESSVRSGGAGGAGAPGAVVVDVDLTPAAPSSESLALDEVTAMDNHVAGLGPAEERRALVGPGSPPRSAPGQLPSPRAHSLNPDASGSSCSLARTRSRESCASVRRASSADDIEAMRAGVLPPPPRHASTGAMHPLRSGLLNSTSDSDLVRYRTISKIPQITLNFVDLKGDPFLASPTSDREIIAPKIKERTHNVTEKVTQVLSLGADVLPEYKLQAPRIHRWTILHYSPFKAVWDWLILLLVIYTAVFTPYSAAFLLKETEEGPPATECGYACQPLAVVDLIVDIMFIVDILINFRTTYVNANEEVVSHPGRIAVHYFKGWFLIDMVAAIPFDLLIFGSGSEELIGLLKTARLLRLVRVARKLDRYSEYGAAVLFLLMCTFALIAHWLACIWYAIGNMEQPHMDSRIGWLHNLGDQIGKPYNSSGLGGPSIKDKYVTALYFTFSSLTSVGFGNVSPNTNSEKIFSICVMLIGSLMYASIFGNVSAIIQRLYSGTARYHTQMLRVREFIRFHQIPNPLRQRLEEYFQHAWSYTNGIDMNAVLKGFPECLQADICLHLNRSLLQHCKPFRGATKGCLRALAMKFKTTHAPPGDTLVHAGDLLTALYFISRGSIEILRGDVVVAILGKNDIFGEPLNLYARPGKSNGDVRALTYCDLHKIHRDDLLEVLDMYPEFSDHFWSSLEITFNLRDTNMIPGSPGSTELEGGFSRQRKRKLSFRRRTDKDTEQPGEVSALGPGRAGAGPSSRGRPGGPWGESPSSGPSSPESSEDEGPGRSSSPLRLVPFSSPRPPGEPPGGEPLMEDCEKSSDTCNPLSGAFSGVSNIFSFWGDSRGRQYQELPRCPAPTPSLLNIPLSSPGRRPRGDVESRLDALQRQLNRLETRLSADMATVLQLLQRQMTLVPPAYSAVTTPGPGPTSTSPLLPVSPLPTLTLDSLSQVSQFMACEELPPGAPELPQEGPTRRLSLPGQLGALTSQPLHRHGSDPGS
row,Structure (SMILES),"hERG current change (%, negative = inhibition) at 10uM [%]"
1,N#C/C(=C\c1ccc(OC(F)F)cc1)C(=O)N1CCCCC1,-21.8
2,O=C(CSc1n[nH]c(-c2ccncc2)n1)c1cccc([N+](=O)[O-])c1,-2.25
3,CC(NC(=O)Cc1ccc(NC2=NC3CS(=O)(=O)CC3S2)cc1)c1ccccc1 (centres unmarked),18.1
4,O=C(Cc1c(F)cccc1Cl)NNC(=O)Nc1ccc2c(c1)OCO2,18.2
5,Cc1ccccc1C(=O)Nc1ccnn1C1CCN(Cc2cnn(C)c2)CC1,-26.5
6,Cc1ccc(NC(=O)CSc2nc3ccccc3c(=O)n2CCCN2CCCCC2)cc1C,-71.9
7,COc1ccc(C(=O)/C=C/c2ccc(N(C)C)cc2)c(OC)c1,-15.6
8,CCCC(OC(=O)CC1Sc2ccccc2NC1=O)C(=O)NCc1ccco1 (centres unmarked),-13.8
9,Cc1nn(C)c(Oc2cccc(Cl)c2)c1C#N,8.31
10,COc1cccc(C(=O)NCC(=O)N/N=C(\C)Cc2ccccc2)c1,12.3
11,Cc1ccccc1NC(=O)C1CCN(C(=O)NC2CCCCC2)CC1,13.1
12,COc1cccc(CN(C(=O)Cn2nnc(-c3ccccc3F)n2)C(C(=O)NC(C)(C)C)c2ccncc2)c1 (centres unmarked),-18.7
13,Cc1ccc(S(=O)(=O)N2CCOCC2)cc1C(=O)NCc1ccccc1CN1CCCC1,-53
14,CCCNC(=O)c1onc(CSc2ccc(F)cc2)c1C(=O)NC(C)C,-5.38
15,CCOC(=O)c1c[nH]n(-c2ccc(C)cc2)c1=O,19.1
16,COc1ccc(-c2nnc(SCc3ccccc3F)o2)cc1OC,9.89
17,Cc1ccc(C)c(/C=N/Nc2ccccn2)c1,24.6
18,CCOC(=O)c1oc2ccccc2c1NC(=O)C1CCCCC1,-8.66
19,Cc1cnc(C)c(N(C)NC(=S)Nc2ccccc2)n1,-13.7

row,Structure (SMILES),"hERG current change (%, negative = inhibition) at 10uM [%]"
1,Cc1ccc2[nH]c(C)c(CCN(Cc3cccnc3)C(=S)NC(C)(C)C)c2c1,2.7
2,CN1CCN(c2nc3ccccn3c(=O)c2/C=C(\C#N)S(=O)(=O)c2ccc(Cl)cc2)CC1,-51.9
3,COc1cccc(CN(C)C(=O)c2cccc(OCc3ccccc3)c2)c1,13.1
4,CCOc1cccc(CN2CCCC(N3CCc4cc(OC)c(OC)cc4C3)C2)c1O (centres unmarked),-39.3
5,Cc1ccc(S(=O)(=O)NCC(c2ccccc2)N2CCN(CCC#N)CC2)cc1 (centres unmarked),-21.5
6,O=C(COc1ccc2c3c(c(=O)oc2c1)CCCC3)NCc1ccncc1,3.34
7,COc1ccc2nc(Nc3nc(CSc4ccc(C)cc4)cc(=O)[nH]3)nc(C)c2c1,-13.1
8,COc1cccc(NC(=O)C2CCCN2S(=O)(=O)c2ccc3c(c2)C(C)(C)C(=O)N3C)c1 (centres unmarked),-10.7
9,Clc1cccc(C2NCc3ccccc3-n3cccc32)c1 (centres unmarked),15.2
10,CCCC(=O)Nc1cc(S(=O)(=O)N2CCCCC2)ccc1N1CCOCC1,-5.59
11,Oc1cnn(-c2ccccc2)c1,-0.563
12,CCOc1ccc(S(=O)(=O)N2CCCC(C(=O)N3CCOCC3)C2)cc1Cl (centres unmarked),4.02
13,Cc1ccc(C(C(=O)NCc2ccc(F)cc2)N(CCCO)C(=O)C2COc3ccccc3O2)o1 (centres unmarked),-38.7
14,O=C1NC2(CCCCC2)Cc2ccccc21,5.62
15,Cc1ccc(S(=O)(=O)/N=S(\C)C(C)C)cc1 (centres unmarked),4.08
16,O=S(=O)(Nc1ccc(O)c2ccccc12)c1ccc(OC(F)(F)F)cc1,0.524
17,NC(=O)c1ccccc1NC(=O)CCCN1C(=O)CCC1=O,7.71
18,CC(Oc1ccc(Cl)cc1)c1ccc(C#N)c(=O)[nH]1 (centres unmarked),-1.11
19,COc1ccc(NC2CC(=O)N(c3ccc(C(=O)O)cc3)C2=O)cc1 (centres unmarked),5.73

row,Structure (SMILES),"hERG current change (%, negative = inhibition) at 10uM [%]"
1,O=C(O)CNS(=O)(=O)c1cccc(Cl)c1,7.93
2,COc1ccc(N2CCN(C3CC(=O)N(Cc4ccccc4)C3=O)CC2)cc1 (centres unmarked),3.62
3,COc1ccc(S(=O)(=O)NCCc2csc(-c3cccnc3)n2)cc1,-30.5
4,C[C@@]12C(=O)N(c3cccc(F)c3)C(=O)N1[C@H](c1ccc(Cl)cc1)[C@@H]1C(=O)N(C3CCCCC3)C(=O)[C@@H]12,4.31
5,COc1cc(C(=O)NC(=S)Nc2ccccc2N2CCOCC2)cc(OC)c1OC,-8.15
6,Cc1coc2cc3oc(=O)c(CC(=O)N[C@@H](CC(C)C)C(=O)O)c(C)c3cc12,9.3
7,Cc1ccc(N=c2c([N+](=O)[O-])nn(-c3ccccc3)n2O)c(C)c1,-9.28
8,CCOc1ccc(/C=C/C(=O)N(CC)CC(=O)Nc2ccc3c(c2)OCCO3)cc1OC,-39.3
9,O=C(Nc1ccccc1N1CCCCC1)c1cc(S(=O)(=O)N2CCOCC2)ccc1Cl,-4.01
10,COc1cccc(-c2nn3c(-c4cc(C)[nH]n4)nnc3s2)c1,-57.5
11,C=CCNC(=O)CC(C)C(CCCCC)C(=O)O (centres unmarked),9.32
12,O=C(Cc1nn[nH]n1)Nc1ccc(F)cc1F,1.18
13,COc1ccc2c(c1)C=C(C(=O)OCc1cccnc1)CO2,3.63
14,O=C(COc1ccccc1)NCc1ccc2c(c1)OCO2,-3.64
15,CCNc1nc(Sc2ccc(C)cc2)cc(C(F)(F)F)n1,-1.85
16,COc1ccc2c(c1)C1CC(C)(NC(=O)C1S(=O)(=O)c1ccc(F)cc1)O2 (centres unmarked),-9.7
17,O=S(=O)(c1ccccc1F)N1CCN(CCOc2ccccc2)CC1,-16.3
18,O=C(/C=C/c1ccco1)N1CCCC(c2ccccc2)C1 (centres unmarked),-14.7
